# From PubChem BioAssay (Tox21)
# Values joined by “and” are separate entries in the source; they are usually repeats but may differ in a detail not shown here. Equal entries are not always repeated. Inconclusive means that the source gave no clear call. Such entries were picked first, then a sample of the others. For part of these data: A potency beside an inconclusive call is a rough fit, not a confirmed value. Active and inactive are the calls of the source. Unless noted, calls follow the shape of the dose curve; as a rule, active = well fitted curve in the direction sought with a large enough effect in the repeat runs; inconclusive = weak or mixed curves; inactive = no such curve, though single readings can be large; an effect the other way counts as inactive or inconclusive.
# Columns and labels:
# [1] = qHTS assay to identify small molecule phospholipidosis (PLD) inducers (AID 1259344; active = well fitted curve in the direction sought with a large enough effect; inconclusive = small, poorly fitted or top-dose-only effect, or another doubt; inactive = no such curve, though single readings can be large; an effect the other way counts as inactive or inconclusive; also: potency is read from the fitted curve at half-maximal effect; as to PLD induction: % is scaled to controls: 0 for no effect and ±100 for the full control effect); conditions: HepG2 phospholipidosis, LipidTOX Red imaging, 24 h
# In short: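 After 4 h attachment on collagen I, HepG2 cells were dosed with compound alongside LipidTOX Red, kept 24 h at 37 C, fixed, and imaged for lamellar phospholipid pits.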
# [2] = target: Estrogen receptor (Homo sapiens) (UniProt P03372); experiment: qHTS assay to identify small molecule antagonists of the estrogen receptor alpha (ER-alpha) signaling pathway (AID 743069; active = well fitted curve in the direction sought with a large enough effect in the signal ratio in the repeat runs, not every such curve was filed as active; inconclusive = weak or mixed curves, or effect the other way; inactive = no such curve, though single readings can be large or run the other way; the % refers to the signal ratio; also: potency is read from the fitted curve at half-maximal effect; as to activity, negative = inhibition: % is scaled to controls: 0 for no effect and ±100 for the full control effect); conditions: HEK293 ER-alpha-UAS-bla, beta-lactamase ratio, antagonist mode; activity, negative = inhibition: at 69.4 µM (top of the series) unless noted
# Sequence of UniProt P03372 (P03372 whole entry, looked up): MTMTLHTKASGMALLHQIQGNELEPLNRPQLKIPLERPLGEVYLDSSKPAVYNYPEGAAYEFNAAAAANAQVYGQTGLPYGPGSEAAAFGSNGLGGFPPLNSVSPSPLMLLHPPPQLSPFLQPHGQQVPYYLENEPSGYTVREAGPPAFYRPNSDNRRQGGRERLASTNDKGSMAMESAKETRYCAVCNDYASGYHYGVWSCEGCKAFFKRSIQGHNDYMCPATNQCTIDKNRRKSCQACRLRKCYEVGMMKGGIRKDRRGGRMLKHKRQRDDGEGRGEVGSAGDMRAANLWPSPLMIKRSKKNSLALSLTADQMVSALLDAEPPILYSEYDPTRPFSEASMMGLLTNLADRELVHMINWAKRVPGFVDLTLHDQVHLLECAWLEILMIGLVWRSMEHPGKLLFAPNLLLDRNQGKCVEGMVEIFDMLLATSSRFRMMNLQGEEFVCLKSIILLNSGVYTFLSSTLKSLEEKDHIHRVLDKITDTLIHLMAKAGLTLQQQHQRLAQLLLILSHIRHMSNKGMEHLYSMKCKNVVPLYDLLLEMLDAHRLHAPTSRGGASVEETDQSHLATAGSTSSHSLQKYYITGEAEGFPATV
# In short: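 A 17beta-estradiol challenge was applied right after compound transfer to ER-alpha-UAS-bla HEK293 cells previously kept in charcoal-stripped serum. Plates stood 18 hr at 37C and 5% CO2; fluorescence was read following 2 hr FRET substrate loading at room temperature.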
# [3] = A CellTox Green Cytotoxicity Assay to monitor cytotoxicity in HEK293 cells - 16 hour (AID 1224888); also: % is scaled to controls: 0 for no effect and ±100 for the full control effect; nearly all actives have a fitted effect of over 35% in size
# In short: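 Tox21 screen in HEK293: membrane-impermeant cyanine dye fluoresces on binding dead-cell DNA; compound pinned 5 h post-seeding, plates held at 37 C, signal read repeatedly through 40 h.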
# [4] = qHTS assay for identifying genotoxic compounds that show differential cytotoxicity against isogenic chicken DT40 cell lines with known DNA damage response pathways - Rad54/Ku70 mutant cell line (AID 743015); conditions: DT40 Rad54/Ku70 mutant viability, CellTiter-Glo, 40 h; activity change, negative = cytotoxicity: at 66.8 µM (top of the series) unless noted; also: potency is read from the fitted curve at half-maximal effect; nearly all actives have a fitted effect of over 60% in size
# [5] = qHTS assay to identify small molecule antagonists of the androgen receptor (AR) signaling pathway - cell viability counter screen (AID 743033; also: nearly all actives have a fitted effect of over 45% in size; also: potency is read from the fitted curve at half-maximal effect); conditions: AR-bla HEK293 viability, CellTiter-Glo luminescence, 16 h; activity change, negative = cytotoxicity: at 58.5 µM (top of the series) unless noted
# [6] = target: Peroxisome proliferator-activated receptor gamma (Homo sapiens) (UniProt P37231); experiment: qHTS assay to identify small molecule agonists of the peroxisome proliferator-activated receptor gamma (PPARg) signaling pathway (AID 743094; active = well fitted activation curve with a large enough effect in the signal ratio in the repeat runs, not every such curve was filed as active; inconclusive = weak or mixed curves, or effect the other way; inactive = no such curve, though single readings can be large or run the other way; the % refers to the signal ratio; also: potency is read from the fitted curve at half-maximal effect); conditions: HEK293H PPARg-UAS-bla, beta-lactamase FRET ratio, 17 h
# Sequence of UniProt P37231 (P37231 whole entry, looked up): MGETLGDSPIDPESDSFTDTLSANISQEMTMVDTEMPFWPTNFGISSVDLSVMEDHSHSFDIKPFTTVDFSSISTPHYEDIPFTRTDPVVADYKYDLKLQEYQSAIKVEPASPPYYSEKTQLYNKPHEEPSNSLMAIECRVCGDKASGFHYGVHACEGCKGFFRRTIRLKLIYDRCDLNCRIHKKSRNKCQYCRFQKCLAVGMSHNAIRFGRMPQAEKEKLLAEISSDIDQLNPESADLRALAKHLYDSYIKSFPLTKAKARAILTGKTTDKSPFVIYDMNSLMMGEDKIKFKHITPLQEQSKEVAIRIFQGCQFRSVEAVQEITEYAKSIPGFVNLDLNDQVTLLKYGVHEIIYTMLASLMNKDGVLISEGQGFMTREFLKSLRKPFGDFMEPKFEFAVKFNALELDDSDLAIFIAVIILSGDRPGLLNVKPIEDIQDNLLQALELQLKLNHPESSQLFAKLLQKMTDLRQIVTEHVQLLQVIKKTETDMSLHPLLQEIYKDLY
# In short: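 Fluorescence-based beta-lactamase readout in HEK293H PPARg UAS-bla cells after 17 h compound exposure (37C) and 1 h B/G FRET substrate incubation at room temperature.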
# [7] = qHTS assay to identify small molecule antagonists of the estrogen receptor alpha (ER-alpha) signaling pathway using the BG1 cell line (AID 743080; calls by dose curve;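 also: BG1 cells stimulated with 17beta-estradiol alongside compound; nearly all actives have a fitted effect of over 25% in size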; also: potency is read from the fitted curve at half-maximal effect); conditions: BG1Luc4E2 ERE-luciferase antagonist mode, luminescence; activity change, negative = inhibition: at 70.3 µM (top of the series) unless noted
# In short: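 Luciferase inhibition measured with ONE-Glo after 30 min at RT in BG1Luc4E2 cells given test compounds and 17beta-estradiol for 21.5 h at 37 C; CellTiter-Fluor viability read in the same wells beforehand.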
# [8] = qHTS assay to identify small molecule agonists of the farnesoid-X-receptor (FXR) signaling pathway - cell viability counter screen (AID 743218); conditions: FXR-bla HEK293T viability, CellTiter-Glo luminescence, 16 h; viability change, negative = cytotoxic: at 62.6 µM (top of the series) unless noted; also: potency is read from the fitted curve at half-maximal effect; nearly all actives have a fitted effect of over 45% in size
# In short: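 Same-well cytotoxicity check on FXR-UAS-bla HEK 293T cells: 5 h attachment, 16 h compound at 37 C, CellTiter-Glo luminescence read at room temperature after 30 min.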
# [9] = target: Estrogen receptor beta (Homo sapiens) (UniProt Q92731); experiment: qHTS assay to identify small molecule antagonists of the estrogen receptor beta (ER-beta) signaling pathway (AID 1259378; active = well fitted inhibition curve with a large enough effect in the signal ratio in the repeat runs, not every such curve was filed as active; inconclusive = weak or mixed curves, or effect the other way; inactive = no such curve, though single readings can be large or run the other way; the % refers to the signal ratio; also: % is scaled to controls: 0 for no effect and ±100 for the full control effect); conditions: ER-beta-UAS-bla HEK293T, beta-lactamase FRET ratio, 16 h; activity, negative = inhibition: at 92.4 µM (top of the series) unless noted
# Sequence of UniProt Q92731 (Q92731 whole entry, looked up): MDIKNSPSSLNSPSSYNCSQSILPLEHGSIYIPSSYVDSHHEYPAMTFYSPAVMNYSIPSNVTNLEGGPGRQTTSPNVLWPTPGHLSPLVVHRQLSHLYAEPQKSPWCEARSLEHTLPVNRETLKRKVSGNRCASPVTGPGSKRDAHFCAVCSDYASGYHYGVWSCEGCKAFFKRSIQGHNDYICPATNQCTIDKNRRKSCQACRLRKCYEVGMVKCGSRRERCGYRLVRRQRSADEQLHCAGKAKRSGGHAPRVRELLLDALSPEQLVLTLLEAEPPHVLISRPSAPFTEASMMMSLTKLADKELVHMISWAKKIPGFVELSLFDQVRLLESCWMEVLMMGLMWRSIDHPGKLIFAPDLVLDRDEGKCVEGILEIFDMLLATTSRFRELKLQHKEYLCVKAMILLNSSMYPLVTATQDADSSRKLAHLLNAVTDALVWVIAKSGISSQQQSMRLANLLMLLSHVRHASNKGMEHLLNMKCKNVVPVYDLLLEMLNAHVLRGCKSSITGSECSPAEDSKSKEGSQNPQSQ
# In short: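 ER-beta-UAS-bla HEK293T (GripTite) cells in 2% charcoal-stripped FBS medium were preincubated 6 hr at 37C, dosed with compound, then stimulated with 1 nM E2 (final) for 16 hr; beta-lactamase reporter read by B/G FRET fluorescence after 2 hr substrate loading.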
# [10] = target: Cytochrome P450 2D6 (Homo sapiens) (UniProt P10635); experiment: Cytochrome P450 Family 2 Subfamily D Member 6 (CYP2D6) small molecule antagonists: luciferase reporter qHTS assay (AID 1671196); also: potency is read from the fitted curve at half-maximal effect; nearly all actives have a fitted effect of over 50% in size
# Sequence of UniProt P10635 (P10635 whole entry, looked up): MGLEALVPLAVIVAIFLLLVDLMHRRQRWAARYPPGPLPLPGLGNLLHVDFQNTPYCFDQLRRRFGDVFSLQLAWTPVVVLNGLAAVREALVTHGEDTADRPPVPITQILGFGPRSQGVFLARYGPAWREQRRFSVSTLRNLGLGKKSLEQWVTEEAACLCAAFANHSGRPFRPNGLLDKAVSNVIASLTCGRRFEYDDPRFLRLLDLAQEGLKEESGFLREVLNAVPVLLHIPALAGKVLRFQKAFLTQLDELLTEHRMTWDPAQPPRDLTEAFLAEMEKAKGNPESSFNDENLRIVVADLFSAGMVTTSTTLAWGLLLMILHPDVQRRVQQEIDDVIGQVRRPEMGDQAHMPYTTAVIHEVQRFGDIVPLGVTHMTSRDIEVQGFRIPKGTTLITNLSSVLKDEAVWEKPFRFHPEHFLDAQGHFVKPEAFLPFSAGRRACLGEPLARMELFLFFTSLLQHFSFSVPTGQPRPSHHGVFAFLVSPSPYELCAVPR
# In short: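 Chemicals tested for interference with CYP2D6 activity; proluciferin substrate, NADPH regeneration, 1 h at room temperature, luminescent detection.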
# [11] = target: Estrogen receptor beta (Homo sapiens) (UniProt Q92731); experiment: qHTS assay to identify small molecule agonists of the estrogen receptor beta (ER-beta) signaling pathway (AID 1259377; active = well fitted activation curve with a large enough effect in the signal ratio in the repeat runs, not every such curve was filed as active; inconclusive = weak or mixed curves, or effect the other way; the % refers to the signal ratio; also: % is scaled to controls: 0 for no effect and ±100 for the full control effect); conditions: ER-beta-UAS-bla HEK293T, beta-lactamase FRET ratio, 16 h; activation: at 92.4 µM (top of the series) unless noted
# In short: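 In HEK293T cells bearing a UAS-beta-lactamase reporter under ER-beta control, DMSO-delivered compounds were incubated for 16 hr at 37C. Activity was detected as fluorescence 2 hours after LiveBLAzer B/G FRET substrate addition.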
# [12] = qHTS assay to identify small molecule agonists of the vitamin D receptor (VDR) signaling pathway - cell viability counter screen (AID 743224); also: potency is read from the fitted curve at half-maximal effect; nearly all actives have a fitted effect of over 50% in size
# In short: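 Counter screen for cytotoxicity: VDR-bla cells at 2,000 cells/well, 16 h compound exposure, then CellTiter-Glo luminescence after the beta-lactamase measurement.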
# [13] = qHTS assay to identify small molecule agonists of the estrogen receptor beta (ER-beta) signaling pathway - cell viability counter screen (AID 1259380); also: nearly all actives have a fitted effect of over 30% in size; also: potency is read from the fitted curve at half-maximal effect
# In short: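 Measured: luminescence from CellTiter-Glo after 30 min at room temperature, added to wells already read for the LiveBLAzer FRET reporter (2 hr substrate); ER-beta-UAS-bla HEK293T cells had 16 hr compound treatment at 37C, 5% CO2.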
# [14] = Caspase-3/7 induction in HepG2 cells by small molecules, qHTS cell viability counter screen (AID 1346981); also: nearly all actives have a fitted effect of over 30% in size; also: potency is read from the fitted curve at half-maximal effect
# In short: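 Treatment of HepG2 cells with DMSO-delivered compounds ran 16 hr at 37 C following a 5-hr pre-incubation of 2,000 cells/well. CellTiter-Fluor fluorescence, read after 1 hr, served as the viability measure in a qHTS format.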
# [15] = qHTS assay to identify small molecule antagonists of the vitamin D receptor (VDR) signaling pathway - cell viability counter screen (AID 743225); conditions: VDR-bla HEK293T viability, CellTiter-Glo luminescence, 16 h; viability change, negative = cytotoxic: at 61 µM (top of the series) unless noted; also: nearly all actives have a fitted effect of over 50% in size; also: potency is read from the fitted curve at half-maximal effect
# In short: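 In this counter screen, VDR-bla HEK 293T cells receive test compound plus 3 nM final calcitriol for 16 h at 37C. Room-temperature steps of 2 h with the beta-lactamase substrate, then 30 min with CellTiter-Glo, precede the luminescence read.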
# [16] = qHTS assay to identify small molecule antagonists of the progesterone receptor (PR) signaling pathway - cell viability counter screen (AID 1346798); also: % is scaled to controls: 0 for no effect and ±100 for the full control effect; nearly all actives have a fitted effect of over 50% in size
# In short: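 ATP content as viability readout: CellTiter-Glo luminescence, 30 min room temperature, in PR-UAS-bla HEK293T cells after 16 hr compound/R5020 treatment at 37C and 5% CO2.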
# [17] = target: Progesterone receptor (Homo sapiens) (UniProt P06401); experiment: qHTS assay to identify small molecule agonists of the progesterone receptor (PR) signaling pathway (AID 1346784; calls by dose curve; also: % is scaled to controls: 0 for no effect and ±100 for the full control effect; nearly all actives have a fitted effect of over 30% in size); conditions: PR-UAS-bla HEK293T, beta-lactamase FRET ratio, 16 h; activation: at 92.4 µM (top of the series) unless noted
# Sequence of UniProt P06401 (P06401 whole entry, looked up): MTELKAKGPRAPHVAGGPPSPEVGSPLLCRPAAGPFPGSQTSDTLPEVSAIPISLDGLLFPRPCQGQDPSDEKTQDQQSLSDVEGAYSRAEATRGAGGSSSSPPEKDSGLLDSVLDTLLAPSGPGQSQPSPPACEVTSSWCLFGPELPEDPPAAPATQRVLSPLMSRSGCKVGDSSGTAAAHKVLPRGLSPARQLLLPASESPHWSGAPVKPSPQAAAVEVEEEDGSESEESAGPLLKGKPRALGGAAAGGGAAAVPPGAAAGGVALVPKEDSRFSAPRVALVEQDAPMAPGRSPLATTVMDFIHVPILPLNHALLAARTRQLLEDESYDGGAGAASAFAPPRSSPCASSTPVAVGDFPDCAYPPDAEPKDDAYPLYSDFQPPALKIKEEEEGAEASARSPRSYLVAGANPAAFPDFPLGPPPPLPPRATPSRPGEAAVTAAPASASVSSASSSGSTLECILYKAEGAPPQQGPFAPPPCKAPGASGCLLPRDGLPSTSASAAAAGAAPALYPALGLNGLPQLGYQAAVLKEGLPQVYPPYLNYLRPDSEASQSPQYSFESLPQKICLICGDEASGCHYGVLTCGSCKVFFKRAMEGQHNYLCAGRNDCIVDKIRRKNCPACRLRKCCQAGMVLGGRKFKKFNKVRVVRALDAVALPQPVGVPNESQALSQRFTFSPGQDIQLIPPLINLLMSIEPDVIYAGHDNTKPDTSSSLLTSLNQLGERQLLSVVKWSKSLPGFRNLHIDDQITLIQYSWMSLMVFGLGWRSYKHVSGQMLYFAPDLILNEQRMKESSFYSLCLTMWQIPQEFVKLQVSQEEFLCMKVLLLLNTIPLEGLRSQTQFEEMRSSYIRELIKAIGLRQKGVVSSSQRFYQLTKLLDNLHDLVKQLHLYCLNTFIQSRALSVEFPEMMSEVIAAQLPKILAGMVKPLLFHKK
# In short: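 Using charcoal-stripped serum (2%) to limit endogenous steroids, PR-UAS-bla HEK 293T cells received compounds for 16 hr at 37C after 6 hr plating; beta-lactamase FRET fluorescence was recorded following 2 hr substrate loading at room temperature.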
# [18] = PLD induction: at 38.3 µM (top of the series) unless noted
# [19] = activation: at 57 µM (top of the series) unless noted
# Tags tell the direction and shape of the fitted curve or compound fluorescence and quenching.
smiles,measurement,setting,value
O=P(O)(O)CP(=O)(O)O,Potency,[1]; [18],inactive
CCC=O,Potency,[2],inactive
same,Potency,[3],inactive
COc1cc([C@@H]2c3cc4c(cc3C(O[C@@H]3O[C@@H]5CO[C@@H](C)O[C@H]5[C@H](O)[C@H]3O)C3COC(=O)[C@@H]32)OCO4)cc(OC)c1OP(=O)(O)O (stereo not given in full),Potency,[4],active: 53.1 nM and active: 75 nM
same,Potency,[5],"inconclusive: 2.13 µM [cytotoxic, full curve]"
same,Potency,[2],inactive
same,activation,[6]; [19],inconclusive: -11.6%
same,activation,[6]; at 57 µM (top of the series),inactive: -7.13%
same,PLD induction,[1]; [18],inconclusive: 83% [activator] [at 0.0123 µM]
same,PLD induction,[1]; at 1.53 µM (top of the series),inactive: 0.0559%
COc1ccc(CNCC(O)COc2ccc3[nH]c(=O)ccc3c2)cc1OC (stereo not given),Potency,[1]; [18],"inconclusive: 12.6 µM [activator, partial curve, poor fit]"
CCCCN=C(N)N=C(N)N,Potency,[4],"inconclusive: 33.5 µM [cytotoxic, single point]"
same,Potency,[7],active: 16.8 µM
same,Potency,[8],"inconclusive: 6.68 µM [cytotoxic, partial curve, poor fit]"
same,Potency,[1]; [18],inactive
same,Potency,[9],inactive
same,Potency,[10],"inconclusive: 17.4 µM [inhibitor, partial curve]"
CN1[C@@H]2CC[C@H]1CC(NC(=O)n1c(=O)[nH]c3ccccc31)C2 (stereo not given in full),Potency,[2],inactive
same,Potency,[11],inactive
COc1cc(NS(=O)(=O)c2ccc(N)cc2)ncn1,Potency,[5],"inconclusive: 8.11 µM [cytotoxic, single point]"
same,Potency,[12],"inconclusive: 29.8 µM [rising, partial curve]"
same,Potency,[3],inactive
same,Potency,[1]; [18],inactive
NC(=O)NC(=O)Cc1ccccc1,Potency,[5],"inconclusive: 0.0034 µM [cytotoxic, full curve, poor fit]"
same,Potency,[13],inactive
same,Potency,[14],inactive
CCOc1cc(NC(C)=O)ccc1C(=O)OC,Potency,[7],inactive
same,Potency,[8],"inconclusive: 13.3 µM [rising, single point]"
same,Potency,[15],inactive
same,Potency,[3],inactive
O=S(=O)(O)c1ccc2cc(O)ccc2c1,Potency,[12],"inconclusive: 6.92 µM [cytotoxic, partial curve, poor fit]"
same,Potency,[15],"inconclusive: 21.9 µM [rising, single point]"
same,Potency,[16],inactive
same,Potency,[14],"inconclusive: 27.3 µM [rising, partial curve] and inconclusive: 30.6 µM [rising, partial curve]"
CCN(CC)CCOc1ccc(-c2nc3cc(Cl)ccc3s2)cc1,Potency,[2],inconclusive: 26.8 µM [fluorescent]
same,Potency,[7],"inconclusive: 10.6 µM [rising, partial curve]"
same,Potency,[6]; [19],"inconclusive: 26.8 µM [rising, single point]"
same,Potency,[1]; [18],"inconclusive: 7.08 µM [activator, partial curve]"
CCC(=O)c1ccc2c(c1)N(CCCN1CCN(CCO)CC1)c1ccccc1S2,Potency,[4],active: 4.22 µM
same,Potency,[5],"inconclusive: 19 µM [cytotoxic, partial curve, poor fit]"
same,Potency,[2],inconclusive: 19 µM [partial curve]
same,Potency,[6]; [19],"inconclusive: 5.35 µM [rising, full curve, poor fit]"
same,Potency,[1]; [18],"inconclusive: 14.1 µM [activator, single point]"
CN1CCCN=C1/C=C/c1cccs1,Potency,[1]; [18],inactive
same,Potency,[17],inactive
same,Potency,[14],inactive
C=C[C@]1(C)C[C@@H](OC(=O)CSCCN(CC)CC)[C@]2(C)[C@H](C)CC[C@]3(CCC(=O)[C@H]32)[C@@H](C)[C@@H]1O,Potency,[2],inactive
same,Potency,[1]; [18],"inconclusive: 14.1 µM [activator, partial curve, poor fit]"
O=C(O)[C@H](CC(=O)N1C[C@H]2CCCC[C@H]2C1)Cc1ccccc1,Potency,[5],inactive
same,Potency,[1]; [18],inactive
N#Cc1ccc2c(c1)N(CCCN1CCC(O)CC1)c1ccccc1S2,Potency,[5],"inconclusive: 0.0015 µM [cytotoxic, full curve, poor fit]"
same,Potency,[2],inactive
same,Potency,[1]; [18],"inconclusive: 11.2 µM [activator, single point]"
N[C@H]1CN(c2c(F)cc3c(=O)c(C(=O)O)cn(C4C[C@H]4F)c3c2Cl)CC12CC2 (stereo not given in full),Potency,[15],inactive
same,Potency,[3],inactive
same,Potency,[16],inactive
C=C[C@]1(C)C[C@@H](OC(=O)CSC(C)(C)CNC(=O)[C@H](N)C(C)C)[C@]2(C)[C@H](C)CC[C@]3(CCC(=O)[C@H]32)[C@@H](C)[C@@H]1O,Potency,[5],"inconclusive: 21.3 µM [cytotoxic, partial curve, poor fit]"
same,Potency,[7],inconclusive: 29.8 µM
same,activation,[6]; [19],inconclusive: -15.2%
same,Potency,[1]; [18],"inconclusive: 10 µM [activator, single point]"
CCCOCCOCCOCCO,Potency,[8],"inconclusive: 2.75 µM [rising, partial curve, poor fit]"
same,Potency,[9],inactive
same,Potency,[17],inactive
CC/C(C)=N/O,Potency,[3],inactive
same,Potency,[13],"inconclusive: 30.6 µM [rising, single point]"
CC(C)CCCC(C)CCCC(C)CCCCC(C)CCCC(C)CCCC(C)C (stereo not given),Potency,[12],"inconclusive: 1.06 µM [cytotoxic, single point]"
same,Potency,[1]; [18],inactive
CC(C)(C)C1(O)CCN2CC3c4ccccc4CCc4cccc(c43)C2C1 (stereo not given),Potency,[4],active: 11.9 µM
same,Potency,[2],"inconclusive: 30.1 µM [partial curve, poor fit]"
same,"activity change, negative = inhibition",[7],inconclusive: -23.1%
same,Potency,[1]; [18],"inconclusive: 14.1 µM [activator, single point]"
O=C(O)c1c(Cl)c(Cl)c(Cl)c(Cl)c1-c1c2cc(I)c(=O)c(I)c-2oc2c(I)c(O)c(I)cc12,Potency,[4],"inconclusive: 13.3 µM [cytotoxic, partial curve]"
same,Potency,[5],inactive
same,Potency,[2],"inconclusive: 9.52 µM [activator, full curve]"
same,Potency,[1]; [18],"inconclusive: 22.4 µM [activator, single point]"
